Laboratory results: PubChem BioAssay (NCATS)
The shares of active, inactive and inconclusive entries below differ from those in the screen. For some assays here: Potencies beside an inconclusive call are fits to weak or partial responses and may not hold up. Active and inactive are the calls of the source. The call rests on the fitted dose curve; in most records, active means well fitted curve in the direction sought with a large enough effect; inconclusive means small, poorly fitted or top-dose-only effect, or another doubt; inactive means no such curve, though single readings can be large; an effect the other way counts as inactive or inconclusive.

Columns and labels:
[1] = HPAF-II Cancer Cell Toxicity qHTS against the NCATS CANVASS Library (AID 1347346); further: nearly all actives have a fitted effect of over 55% in size; further: potency means the concentration at half of the fitted maximal effect; on activity change, negative = cytotoxicity: on the % scale 0 is the no-effect control and ±100 the full control effect
How it was run: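 Using 1000 HPAF-II cells per well, we titrated compounds over 11 concentrations for 72 h at 37 degrees C/5% CO2, with bortezomib as control. Cell survival was quantified by CellTiter-Glo luminescence.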

[2] = Panc-1005 Cancer Cell Toxicity qHTS against the NCATS CANVASS Library (AID 1347349); further: on the % scale 0 is the no-effect control and ±100 the full control effect; nearly all actives have a fitted effect of over 60% in size
How it was run: (§1)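 1000 cells/well seeded and rested 4 h at 37 °C before pin transfer of compounds in an 11-pnt series. Exposure 72 h at 37 °C/5% CO2; viability by CellTiter-Glo luminescence after 15 min at room temperature.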

[3] = SW1088 Cancer Cell Toxicity qHTS against the NCATS CANVASS Library (AID 1347350); further: nearly all actives have a fitted effect of over 75% in size; further: potency means the concentration at half of the fitted maximal effect
How it was run: as §1

[4] = HEK-293 Cancer Cell Toxicity qHTS against the NCATS CANVASS Library (AID 1347355); further: potency means the concentration at half of the fitted maximal effect; nearly all actives have a fitted effect of over 65% in size
How it was run: (§2)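 Using an ATP-based luminescent reagent after three days of treatment, toxicity is scored across an eleven-concentration range in wells holding 1000 cells each.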

[5] = KB-8-5-11 Cancer Cell Toxicity qHTS against the NCATS CANVASS Library (AID 1347364); details: activity change, negative = toxicity: at 46.1 µM (top of the series); further: nearly all actives have a fitted effect of over 75% in size; on activity change, negative = toxicity: on the % scale 0 is the no-effect control and ±100 the full control effect
How it was run: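 Luminescent ATP signal (CellTiter-Glo, 10 min at room temperature) measured cell survival of KB-8-5-11 after 72 hr compound treatment. For confirmation, the cells were also grown with 1uM tariquidar.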

[6] = G06 Cancer Cell Toxicity qHTS against the NCATS CANVASS Library (AID 1347368); further: potency means the concentration at half of the fitted maximal effect; nearly all actives have a fitted effect of over 60% in size
How it was run: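 Quantitative HTS in G06 cells (dog glioma): 72 hr treatment, 11 concentrations, then ATP-based luminescent viability readout; bortezomib 0.1 nM–4.6 uM final as reference.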

[7] = qHTS for Hypoxia signaling pathway (HIF-1) antagonists against the NCATS CANVASS Library (AID 1347374); further: nearly all actives have a fitted effect of over 60% in size; further: potency means the concentration at half of the fitted maximal effect;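 on activity change, negative = inhibition: HRE-bla ME-180 cells stimulated with cobalt chloride to stabilize HIF-1alpha; on the % scale 0 is the no-effect control and ±100 the full control effect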
How it was run: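 Beta-lactamase reporter under HRE control in ME-180 cells; CoCl2 stimulus (60 uM solution as added), compounds 11-pt qHTS, 17 h 37C. CCF4 dye 2 h RT, 460/530 nm emission. CellTiter-Glo viability in same wells.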

[8] = qHTS for Antimalaria activity screened against the NCATS CANVASS Library (AID 1347380); further: nearly all actives have a fitted effect of over 40% in size; further: potency means the concentration at half of the fitted maximal effect;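 on activity change, negative = inhibition: Plasmodium falciparum strain Dd2 asexual parasites grown in red blood cells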
How it was run: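 Measures proliferation or cytotoxicity against Dd2 blood stages in 72 h cultures, 11-point qHTS dosing, with SYBR Green fluorescence as read-out; dihydroartemisinin titration served as control.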

[9] = qHTS for activators of Nrf2/ARE signaling pathway screened against the NCATS CANVASS Library (AID 1347391); further: potency means the concentration at half of the fitted maximal effect; nearly all actives have a fitted effect of over 60% in size
How it was run: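 Activation of Nrf2/ARE was scored in ARE-bla HepG2 cells after 16 h compound exposure using CCF4 beta-lactamase fluorescence ratio readings.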

[10] = UWB1.289 Cancer Cell Toxicity qHTS against the NCATS CANVASS Library (AID 1347347)
How it was run: as §1

[11] = OV-SAHO Cancer Cell Toxicity qHTS against the NCATS CANVASS Library (AID 1347348); details: OV-SAHO viability, CellTiter-Glo luminescence, 72 h; activity change, negative = cytotoxicity: at 38.3 µM (top of the series); further: on the % scale 0 is the no-effect control and ±100 the full control effect; nearly all actives have a fitted effect of over 55% in size
How it was run: as §1

[12] = DH5-alpha competent E. coli microbial cell viability qHTS against the NCATS CANVASS Library (AID 1347377); details: viability signal change, negative = cytotoxic: at 46.1 µM (top of the series); further: potency means the concentration at half of the fitted maximal effect
How it was run: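 Overnight incubation at 37C, 5% CO2 of E. coli DH5-alpha (diluted to 0.2 OD) with compounds precedes BacTiter-Glo addition. Luminescence, acquired after 20 min at room temperature, reflects viable-cell ATP.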

[13] = Secretion counterscreen for inhibitors of the SERCaMP assay screened against the NCATS CANVASS Library (AID 1347390); details: SH-SY5Y constitutive GLuc secretion, luminescence, 20 h; activity change, negative = inhibition: at 76.6 µM (top of the series);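 further: light from luciferase secreted into medium read as a measure of general secretion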; further: potency means the concentration at half of the fitted maximal effect; on activity change, negative = inhibition: on the % scale 0 is the no-effect control and ±100 the full control effect
How it was run: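 SH-SY5Y cells expressing constitutively secreted GLuc, 1000 cells/well, attached 4 h at 37C, then exposed to compounds (0.001 - 77 uM, 11-pnt series) for 20 h. Coelenterazine added; luminescence read to flag secretory-pathway interferers.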

[14] = qHTS for inhibitors of ER calcium dysfunction: SERCaMP assay screened against the NCATS CANVASS Library (AID 1347393); details: SH-SY5Y GLuc-SERCaMP secretion, thapsigargin, luminescence; activity change, negative = inhibition: at 76.6 µM (top of the series) unless noted; further: potency means the concentration at half of the fitted maximal effect; nearly all actives have a fitted effect of over 40% in size
How it was run: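 SH-SY5Y GLuc-SERCaMP, 1000 cells/well, 4 h attach; cpd 16 h, 37C/5% CO2; thapsigargin (added as 6x 600 nM) 4 h; coelenterazine; luminescence. Reduced reporter release = ER Ca stabilization.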

[15] = test system: NAD(P)H diaphorase (Clostridium kluyveri); test: Diaphorse counterscreen qHTS: Assay Interference Panel against the NCATS CANVASS Library (AID 1347362); further: potency means the concentration at half of the fitted maximal effect
How it was run: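 Clostridium kluyveri diaphorase in PBS + 0.01% Tween-20 preincubated 15 min with compounds. Resazurin and NADH then added for 5 min at room temperature in the dark; resorufin fluorescence read (ex 525, em 598).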

[16] = molecular target: Luciferin 4-monooxygenase (Photinus pyralis) (UniProt P08659); test: Firefly luciferase counterscreen qHTS: Assay Interference Panel against the NCATS CANVASS Library (AID 1347363); further: potency means the concentration at half of the fitted maximal effect
How it was run: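 Purified P. pyralis luciferase (0.04 ug/mL, 4x reagent) added to Tris-acetate buffer with 0.013 mM D-luciferin, 0.013 mM ATP and 13.3 mM Mg-acetate; compounds preincubated 15 min, then luminescence read after 5 min, RT.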

[17] = qHTS for H2AX Agonists against the NCATS CANVASS Library (AID 1347378); further: potency means the concentration at half of the fitted maximal effect
How it was run: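 CHO-K1 cells were plated overnight at 37C, then exposed to compounds (concentration series, 0.76% DMSO final) for 3 hr at 37C. Lysates received Eu-cryptate anti-pH2AX (S139) and d2 anti-H2AX antibodies; after 24 hr at room temperature, TR-FRET 665/620 nm ratio was read.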

[18] = Redox Reaction Profiling qHTS: Assay Interference Panel against the NCATS CANVASS Library (AID 1347401); further: potency means the concentration at half of the fitted maximal effect
How it was run: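 Fluorescence read-out (525 nm excitation, 598 nm emission) at time zero and after 15 min in the dark tracked resorufin formation. Mix: 5 uM resazurin, 200 uM DTT, HEPES pH 7.3 buffer with NaCl.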

[19] = UWB1.289-WTBRCA1 Cancer Cell Toxicity qHTS against the NCATS CANVASS Library (AID 1347354)
How it was run: as §2

[20] = qHTS for ATAD5 Antagonist screened against the NCATS CANVASS Library (AID 1347370);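 further: HEK293T cells carrying an ATAD5 luciferase reporter co-treated with 10 µM 5-fluorouridine; on the % scale 0 is the no-effect control and ±100 the full control effect; nearly all actives have a fitted effect of over 65% in size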
How it was run: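 HEK293T-ATAD5 luc reporter, 2000 cells/well; 5hr attach; cpd + 10 uM 5-FUrd; 16hr 37C, 5% CO2. Readouts: CellTiter-Fluor fluorescence (1hr), then Amplite luciferase luminescence (30min RT).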

[21] = qHTS for Inflammasome Signaling Inhibitors: IL-1-beta AlphaLISA screen against the NCATS CANVASS Library (AID 1347379)
How it was run: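 THP-1, 1 hr compound pre-incubation, then LPS 250 ng/mL + ATP 1.25 mM (final); 16 hr total with compound; IL-1B AlphaLISA, ex 680/em 615 nm; 11-point qHTS, up to 57.5 uM final.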

[22] = qHTS for Activators of p53 Stress Response Pathway screened against the NCATS CANVASS Library (AID 1347388); further: potency means the concentration at half of the fitted maximal effect
How it was run: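 p53RE-bla HCT-116 cells (4000/well) were pre-incubated for 5 h, then treated with compound (11 points) for 16 h at 37C. After 2 h with CCF4, the 460/530 nm ratio gave reporter activation; CellTiter-Glo measured viability.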

[23] = Vero-766 cells viability qHTS against the NCATS CANVASS Library: Counterscreen for Zika virus inhibition assay (AID 1347394); details: Vero 766 viability, CellTiter-Glo luminescence, 72 h; activity change, negative = cytotoxic: at 46.1 µM (top of the series)
How it was run: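 Uninfected Vero 766 (African green monkey) cells, 1000/well, attached overnight, then exposed 72 h at 37C to compounds (11-point qHTS). Viability read by CellTiter-Glo luminescence; media-only wells served as 100% inhibition.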
Tags describe the fitted curve by direction and shape.

UniProt P08659, sequence (P08659 whole entry, looked up): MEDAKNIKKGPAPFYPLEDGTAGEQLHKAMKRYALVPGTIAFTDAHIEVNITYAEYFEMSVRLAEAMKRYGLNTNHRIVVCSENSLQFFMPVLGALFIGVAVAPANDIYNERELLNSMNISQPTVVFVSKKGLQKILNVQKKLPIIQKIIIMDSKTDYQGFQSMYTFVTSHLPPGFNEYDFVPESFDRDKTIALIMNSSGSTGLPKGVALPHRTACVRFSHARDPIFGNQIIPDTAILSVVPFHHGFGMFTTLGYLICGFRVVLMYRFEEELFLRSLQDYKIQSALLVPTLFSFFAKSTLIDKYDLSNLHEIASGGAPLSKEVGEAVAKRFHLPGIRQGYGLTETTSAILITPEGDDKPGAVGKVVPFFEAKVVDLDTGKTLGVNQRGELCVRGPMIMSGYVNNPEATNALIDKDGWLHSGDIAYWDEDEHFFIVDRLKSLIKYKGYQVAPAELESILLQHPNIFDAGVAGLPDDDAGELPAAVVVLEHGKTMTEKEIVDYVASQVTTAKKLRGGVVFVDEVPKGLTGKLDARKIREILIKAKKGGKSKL

C/C1=C/[C@@H](C)[C@H](O)[C@@H](O)/C=C/CC/C=C/C(=O)O[C@@H]1[C@H](C)C(=O)CCCC1CC(=O)NC(=O)C1
inactive: Potency [2] | Potency [5] | Potency [7] | Potency [8]
inconclusive: Potency [1] 14.9 µM [cytotoxic, partial curve] | Potency [3] 9.43 µM [cytotoxic, single point] | Potency [4] 37.2 µM [cytotoxic, partial curve, poor fit] | Potency [6] 4.69 µM [cytotoxic, full curve] | Potency [9] 14.8 µM [activator, partial curve, poor fit]

COC(=O)[C@@]12Oc3cccc(O)c3C(O)=C1C(=O)C[C@H](C)[C@H]2O
inactive: Potency [10] | Potency [11]
inconclusive: Potency [7] 54.5 µM [inhibitor, single point] | Potency [12] 0.0068 µM [cytotoxic, full curve, poor fit] | Potency [13] 9.94 µM [inhibitor, full curve] | Potency [9] 34.1 µM [activator, partial curve, poor fit] | Potency [14] 79 µM [inhibitor, partial curve]

C/C1=C\CC(=O)/C=C/C=C\c2csc(n2)[C@@H](C)NC(=O)C[C@@](S)([C@@H](C)C(=O)O)CC1
inconclusive: Potency [15] 21.6 µM [inhibitor, partial curve] | Potency [16] 24.3 µM [inhibitor, partial curve] | Potency [7] 13.3 µM [inhibitor, partial curve] | Potency [17] 21.7 µM [activator, partial curve] | Potency [14] 48.4 µM [inhibitor, partial curve, poor fit] | Potency [18] 24.1 µM [activator, partial curve]
inactive: Potency [1] | Potency [11] | Potency [3] | Potency [8]

COc1cc(C2OCC3C(c4ccc(O)c(OC)c4)OCC23)ccc1O (stereo not drawn)
inactive: outcome [3] inactive [at 7.64 µM] | outcome [19] inactive [at 7.64 µM] | outcome [5] inactive [at 9.19 µM] | activity change, negative = inhibition [20] -9.99% [at 9.19 µM] | activity change, negative = inhibition [13] 27.5% [at 15.3 µM] | activity change, negative = cytotoxic [23] -3.52% [at 9.19 µM]
inconclusive: Potency [1] 5.44 µM [cytotoxic, partial curve, poor fit] | Potency [4] 6.05 µM [cytotoxic, single point] | Potency [7] 0.0031 µM [inhibitor, partial curve, poor fit] | Potency [21] 7.89 µM [inhibitor, single point] | Potency [8] 0.0006 µM [cytotoxic, full curve] | Potency [22] 6.08 µM [activator, single point]
